# Data reported in the RNAGym collection of RNA variant scans (doi:10.7554/elife.90254).
# Read counts are not given, so values of variants with three or more changes are uncertain.
# B1: LINE1-mini (parent)
# chain: GGCAGAGCUCAACACAGCGUGGCAAAGUGGCUGUGGCUAGACUGCC
# Variants of: B1
# Test: self-cleavage, relative activity (ratio to wild type); higher = more cleavage; in vitro, sequencing; the parent is a self-cleaving ribozyme
row,Variant,self-cleavage
1,U20C A24U G27C,0.18
2,U20A G40C C42U G44A,0.01
3,G21A G27U U38G,0.03
4,U20G A25C G27A,1.35
5,U20G U34A A39U C42A,0.05
6,U20A C23A A24G C46A,0.48
7,U20G G27C G36A,0.01
8,U20G C31G A39C,0.02
9,U20C C23A G30C C45A C46G,0.19
10,U20C A25U G36A,0.21
11,U20A G21C G22A,0.46
12,U20C U34G G36A U38C,0.07
13,U20G G29A U34A C42G,0.09
14,U20C G21A A26C G36A,0.03
15,U20C G40C U43G,0.03
16,G21A C23U A26C U34A U38A,0.03
17,U20A A41C G44A,0.08
18,U20C G27C C31G C46G,0.01
19,U20C G21C C31G,0.06
20,U20C C23A U34C A41C U43G,0
21,U20G C31G G36U,0.01
22,U20A G21C C23A A26G G30U U38A,0.1
23,U20A G30U C37G,0
24,G21A A24G G35U G36C A39G C45G,0.05

row,Variant,self-cleavage
1,U20C A24G A26U G33C U34G,0.07
2,G19U U32G U43A,0.05
3,U20C C23U G27C G36A A41C C42G,0.02
4,G21A G22A C37A U43A,0.04
5,U20C C23U C31G G35A C37G,0.02
6,U20G G30A G35C,0.13
7,G21A A26U G29U A39U,2.81
8,U20G A25G G35C C42A,0
9,G21A C31U G33U,0.03
10,G21A A25U G40U A41U,1.51
11,G21A C37G C45A,0.4
12,U20G G22C G40U,0.01
13,U20G C23U A25C C37U,0.01
14,U20G A25G C42G,0.02
15,G21A A41U C42U,0.14
16,U20G G21C C23A A25U,0.18
17,U20A C23U A24G G40U,0.06
18,U20C G35A C46U,0.01
19,G19U U32C G35C C37U,0.01
20,U20G G40U C46A,0.06
21,U20C G22C C31U,1.14
22,G21A G27U G35A U38A,1.27
23,G21A A24G U32G C46U,0.08
24,U20A G21A A24U C31U,0.04

row,Variant,self-cleavage
1,U20C G36U C45G,0.32
2,U20G G30U G40U,0.01
3,U20G G30U G40A,0.04
4,U20G G22A C37G U38C,0.01
5,U20A G21A C37G,0.01
6,G21A A26U G27C,0.63
7,U20A A24U G36C,0.04
8,U20A C23G A24G U43A,0.09
9,U20C A24G U28A,0.64
10,U20A G33U A41G C42G C45A,0.02
11,U20C G40U U43A,0.03
12,U20G U34A C42A,0.02
13,G19U U34G A39C,0.01
14,U20G G22C A39G,0.03
15,U20A U32A U38G C42A,0.01
16,U20C U34G G40A,0.03
17,U20G C23A G27U,0.23
18,U20G A25C A26C G27A U34A,0.08
19,G21A A24U U38G,0.03
20,U20A U28C C42U,0.07
21,U20G G33U U43A,0.02
22,U20G C37U A39G,0.02
23,U20G U38A G44U C46A,0.04
24,U20C U32A G44A C46G,0.01

row,Variant,self-cleavage
1,U20G A26C C31G U32C,0.3
2,U20C C23G A26G U28C C42A,0.1
3,U20C G33A C45G,0.09
4,U20A A39U A41U,0.24
5,G19U U32A G35A G36A G40C C46A,0
6,U20A A25C U28G A39G G44C,0.03
7,G21A A25G G29C C42U,0.15
8,U20G C23G U43C,0.09
9,U20C U32G U34A,0.02
10,G21A G22U C31U,0.17
11,U20A G22U C23U G35U,0.1
12,G21A C23G U38G,0.01
13,U20C A26C G35C A39U U43G,0.01
14,G19U U34C G35A C37U,0.02
15,U20C A25C U32G G33C C37U,0
16,G21A C23U A26U,2.45
17,G21A G22A G27U,0.62
18,G21A A25G G27A U32G A39G,0.1
19,G21A G22U G30U G40A,0.07
20,G21A C42A C46G,0.05
21,U20A G22U U34G,0.18
22,U20A C23U G27U,2
23,U20G G29C A41U,0.14
24,U20G G33A G44U,0

row,Variant,self-cleavage
1,U20A C31U G33A C46U,0.03
2,U20G G35U G40A,0.01
3,U20C U34G C37G G40U,0
4,U20G C23G A25G U28C A41G C46A,0.07
5,G19U U32A C46U,0.01
6,U20A A25C G36C U38A,0.01
7,U20A C23A U34G,0.54
8,U20C A24C A26G,0.24
9,G21A A24G G27U C45A,0.25
10,U20A G35U C45G,0.07
11,U20C U28G G30A C31G A39C,0.01
12,U20C G22U C42G,0.01
13,G21A A25G G40A C42G,0.04
14,U20A G27A G30A,0.87
15,U20C U28C U38A,0.28
16,U20G A24U U28G C46U,0.23
17,U20G A26G A41G C45U,0.6
18,G21A A24U C37A,0.09
19,U20G G21C A24C G29A G33C C46G,0.03
20,U20A U34C A39G,0.02
21,U20C G22A A25G G36U,0.03
22,U20A G21C C37A,0.02
23,U20G C23A U28A U34G C37U G40C,0.03
24,U20G G22U G36C,0.15

row,Variant,self-cleavage
1,U20A G29U C46A,0.45
2,U20A G29U C46U,0.21
3,U20G G33A U43C,0.03
4,U20C A41G C46A,0.46
5,U20C G27C U28C,0.12
6,G21A G27U U34G C37G,0.02
7,U20G G29A G44C,0.29
8,U20C U28A G35U G36U,0.12
9,G21A A26G U32C G33A,0.02
10,U20G A26C G33A,0.33
11,U20G G21U C23A G40A,0.17
12,U20C A25U A39U,0.49
13,G21A G22U C37G A39G,0
14,U20G U34C G35U G36A C42A,0.05
15,U20A A25C G30C,0.97
16,G19U U34A C37A,0.04
17,G19U U34A C37G,0.04
18,U20C A25G G29A G33U,0.04
19,G21A C23A G27U C37G,0.02
20,U20A G30U G36U C37A A39C,0.09
21,G21A C23U G30U A39C,0.38
22,U20A G36A G44A,0.05
23,U20A G30C U43A,0.07
24,U20A G22A U28G U34C,0.1

row,Variant,self-cleavage
1,U20A G21U U32C G44C C45G,0.03
2,U20A G21C G22C U38A C45A,0.01
3,U20A G21U G35U C46U,0.04
4,U20G U28A G44U,0.15
5,U20C G35C C37U,0.06
6,G19U U32C G35A G36A,0.01
7,U20A G21C G36U,0.05
8,U20A G21C C46U,0.29
9,U20A U32G U38A,0.07
10,G21A A24G C45A,0.37
11,U20A C23A A24C G29U G44U,0.21
12,U20G C23G U28A G33A,0.09
13,U20C G21C U38A,0.07
14,U20A C23G G27U,1.5
15,G21A G27A C46G,0.96
16,G21A A26G G33A G40A,0.02
17,U20G A24U U32G,0.01
18,U20G A26C G27C A41C,0.02
19,U20C C23U G29C C31U U34C,0.05
20,U20G G35C C37U,0.02
21,U20A G21C G29U,0.32
22,U20G C23U C31U,0.13
23,U20G G33U C42U,0.07
